{
  "source": "PubChem BioAssay AID485273",
  "about": "(Sanford-Burnham Center for Chemical Genomics, 2010)",
  "note": "Among all 330,000 compounds or so, about 1,500 (0.45%) were called active. Inconclusive means that the source gave no clear call. Such entries were picked first, then a sample of the others. Cut-off read from the data, not from the text of the source: active = inhibition above about 45% (passing the limit was not always enough); inconclusive = no clear call, values can overlap the other calls.",
  "data": [
    {"biological_target": "Ubiquitin-conjugating enzyme E2 N (Homo sapiens) (UniProt P61088)", "sequence (P61088 whole entry, looked up)": "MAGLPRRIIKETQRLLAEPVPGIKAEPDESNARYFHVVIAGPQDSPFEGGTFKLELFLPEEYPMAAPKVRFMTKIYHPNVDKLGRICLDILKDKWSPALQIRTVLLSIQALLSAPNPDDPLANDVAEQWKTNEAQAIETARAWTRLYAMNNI", "assay": "UBC13 polyubiquitin chain formation inhibitors, primary screen, biochemical, TR-FRET, uHTS (AID 485273)", "conditions": "at 20 µM, stronger effect = higher value", "values": [
      {"smiles": "CCOc1ccccc1-n1ccn(CC(=O)Nc2ccc(Br)cc2F)c(=O)c1=O", "inhibition": "inactive: -10%"},
      {"smiles": "CN(C)S(=O)(=O)c1cccc(COc2ncnc3c(Cl)cc(Cl)cc23)c1", "inhibition": "active: 63.7%"},
      {"smiles": "COc1cc2c3nnc(-c4ccc(F)cc4)c-3cn(Cc3cccc(C)c3)c2cc1OC", "inhibition": "active: 78.8%"},
      {"smiles": "CCOc1ccc(Cl)cc1/C=N/NC(N)=O", "inhibition": "active: 49.7%"},
      {"smiles": "Cc1ccc(-c2noc(CCC(=O)NCC3CCN(Cc4cccc(C)c4)CC3)n2)cc1", "inhibition": "active: 55.6%"},
      {"smiles": "CC(Cc1c[nH]c2ccccc12)NC(=O)C1CCCNC1=O", "note": "(stereo not given)", "inhibition": "inconclusive: 88.7%"},
      {"smiles": "O=C(/C=C/c1ccccc1)Nc1cc(NC(=O)/C=C/c2ccccc2)cc(C(=O)O)c1", "inhibition": "inconclusive: 74.9%"},
      {"smiles": "NC(=O)c1sc2nc(N3CCOCC3)c3c(c2c1N)CCCC3", "inhibition": "inconclusive: 76.6%"},
      {"smiles": "Cc1ccc(Sc2cnccc2C#N)cc1", "inhibition": "inconclusive: 49.7%"},
      {"smiles": "CC(C)NC(=O)/C(=C\\c1cccc([N+](=O)[O-])c1)NC(=O)c1ccccc1", "inhibition": "inactive: -2.4%"},
      {"smiles": "C/C(=N\\NC(=O)c1cccc(S(=O)(=O)N2CCCC2)c1)c1ccc(C)cc1", "inhibition": "inactive: -4.7%"},
      {"smiles": "CC[C@@H](C)[C@@H]1CN([C@@H](CN2CCC[C@H]2CN2C(N)=NC[C@H]2C(C)C)C(C)C)C(=N)N1CCc1ccc(Cl)c(Cl)c1", "inhibition": "active: 75%"},
      {"smiles": "COc1ccccc1N1CCN(c2cc(N3CCCC3)nc(C)n2)CC1", "inhibition": "inconclusive: 78.3%"},
      {"smiles": "COc1ccc(NS(=O)(=O)c2ccc(C)c(NC(=O)CN3C(=O)NC4(CCCC4)C3=O)c2)cc1", "inhibition": "active: 106%"},
      {"smiles": "CCN1/C(=C/C=C/c2oc3ccc4ccccc4c3[n+]2CC)Oc2ccc3ccccc3c21", "inhibition": "inconclusive: 92.8%"},
      {"smiles": "CCOc1ccc(C(C(=O)NCC2CCCO2)N(C(=O)c2snc(C(N)=O)c2N)c2ccccc2F)cc1", "note": "(stereo not given)", "inhibition": "active: 47.8%"},
      {"smiles": "COc1ccc([N+](=O)[O-])cc1NS(=O)(=O)c1cccc(C(=O)OC2CCOC2=O)c1", "note": "(stereo not given)", "inhibition": "inactive: -7%"},
      {"smiles": "CCN(CCCNC(=O)c1cc2c(-c3cccc(OC)c3)nn(C)c2s1)Cc1ccccc1", "inhibition": "active: 49.1%"},
      {"smiles": "CCC(=O)Nc1ccc(C(=O)N/N=C/c2c(C)[nH]c3ccccc23)cc1", "inhibition": "inactive: -1.9%"},
      {"smiles": "CN1CCc2c(sc(/N=C/c3c[nH]c4ccccc34)c2C(N)=O)C1", "inhibition": "active: 85.4%"},
      {"smiles": "N#Cc1c(-c2ccccc2)cc2nc3ccccc3n2c1N", "inhibition": "inconclusive: 87.7%"},
      {"smiles": "O=C(OCc1ccccc1F)c1cc2ccccc2cc1O", "inhibition": "inconclusive: 85.3%"},
      {"smiles": "CCn1c(CN2CCN(C(c3ccccc3)c3ccccc3)CC2)nc2c1c(=O)n(C)c(=O)n2C", "inhibition": "inactive: 26.8%"},
      {"smiles": "N/C(=N\\OC(=O)c1ccc(Cl)cc1Cl)c1cccnc1", "inhibition": "inactive: -4.8%"},
      {"smiles": "O=[N+]([O-])c1ccc(C2=Nc3cc(Cl)ccc3OC2)cc1", "inhibition": "inconclusive: 56.1%"},
      {"smiles": "Cc1ccc2c(c1)c1nc3ccccc3nc1n2C", "inhibition": "active: 52.9%"},
      {"smiles": "COc1ccc(OC)c(-n2cnc3cc(C(=O)O)ccc32)c1", "inhibition": "inconclusive: 82.1%"},
      {"smiles": "CN1CCN(/N=C/c2c3ccccc3c(Cl)c3ccccc23)CC1", "inhibition": "inactive: 6.1%"},
      {"smiles": "CCCCNc1nc2c(S(=O)(=O)c3ccccc3)nnn2c2ccccc12", "inhibition": "inconclusive: 76.7%"},
      {"smiles": "C#CCOCCOCCOCCNc1nc(N2CCN(C(=O)[C@H]([C@@H](C)CC)n3cc([C@@H](N)CC(C)C)nn3)CC2)nc(N2CCN(C(=O)[C@H](CCCCN)n3cc([C@@H](N)C(C)CC)nn3)CC2)n1", "note": "(stereo not given in full)", "inhibition": "inactive: 37.4%"},
      {"smiles": "CCOC(=O)c1ccc(N2C(=O)CC(NNC(=O)c3ccc(Br)s3)C2=O)cc1", "note": "(stereo not given)", "inhibition": "inconclusive: 89%"},
      {"smiles": "O=C(N/N=C/c1cccc(Oc2ccccc2)c1)c1ccccc1Br", "inhibition": "inconclusive: 91.6%"},
      {"smiles": "CC1(C)Cc2c(c(N3CCCC3)[nH]c(=S)c2C#N)CO1", "inhibition": "inconclusive: 68.3%"},
      {"smiles": "CCc1nc2sc3c(=O)[nH]cnc3c2c2c1CSC(C)(C)C2", "inhibition": "inconclusive: 57.8%"},
      {"smiles": "COc1cc(C(=O)NC2CC(C)(C)CC(C)(C)C2)ccc1OC1CCN(C(C)=O)CC1", "inhibition": "inconclusive: 88.5%"},
      {"smiles": "CCC1(C)Cc2sc3c(=O)[nH]c(=S)[nH]c3c2CO1", "note": "(stereo not given)", "inhibition": "inconclusive: 85.8%"},
      {"smiles": "Cc1nn(-c2ccccc2)c2nc(N)c(C#N)c(-c3ccc(F)cc3)c12", "inhibition": "inconclusive: 53.4%"},
      {"smiles": "Cc1ccc(CN=c2c([N+](=O)[O-])nn(-c3ccc4c(c3)OCCO4)n2O)cc1", "inhibition": "inactive: -8.5%"},
      {"smiles": "COc1ccc2c(c1)OC[C@H]1[C@H]2N2C(=O)c3cc(Br)ccc3NC(=O)[C@@]2(C)[C@H]1c1ccccc1", "inhibition": "inconclusive: 51.5%"},
      {"smiles": "Cc1cc(C)cc(NC(=S)/N=C(\\N)Nc2nc(C)c3ccccc3n2)c1", "inhibition": "inactive: -7%"},
      {"smiles": "COc1ccccc1CNC(=O)c1ccccc1NS(C)(=O)=O", "inhibition": "inconclusive: 46%"},
      {"smiles": "COc1ccccc1NC(=O)CSc1nc2ccccc2n1C(C)=O", "inhibition": "active: 46.1%"},
      {"smiles": "CC(C)C[C@@H]1CN=C(N)N1C[C@@H]1CCCN1C[C@@H](C(C)C)N1C[C@@H](Cc2ccccc2)N(CCc2ccc(Cl)c(Cl)c2)C1=N", "inhibition": "inactive: 15.1%"},
      {"smiles": "COc1cc(C(=O)ON=C2C(C)=CC(=O)C=C2C)cc(OC)c1OC", "inhibition": "inactive: -6.7%"},
      {"smiles": "Cc1nnc(SCC(=O)NNC(=O)c2ccc(Br)cc2)n1C", "inhibition": "inactive: 3.1%"},
      {"smiles": "CC(C)n1ncc2c(C(=O)NCc3cccnc3)cc(C3CC3)nc21", "inhibition": "inactive: 14.6%"},
      {"smiles": "CC(=O)c1ccccc1OCC(O)CN1CCN(CCN2C(=O)c3cccc4cccc(c34)C2=O)CC1", "note": "(stereo not given)", "inhibition": "active: 54%"},
      {"smiles": "COc1ccc(-c2nn(C)c(=O)c3ccccc23)cc1NC(=O)Cn1nc(C)c2ccccc2c1=O", "inhibition": "inconclusive: 81.9%"},
      {"smiles": "O=C(CSc1cccc[n+]1[O-])Nc1ccc(N2CCOCC2)cc1", "inhibition": "inactive: -12.4%"},
      {"smiles": "CC(C)C1Cc2ccccc2-c2[nH]c(=S)[nH]c(=O)c21", "note": "(stereo not given)", "inhibition": "inconclusive: 77.2%"},
      {"smiles": "COc1cccc(NC(=O)CSc2nc(=O)n(Cc3ccncc3)c3c2CCCC3)c1", "inhibition": "inactive: -0.6%"},
      {"smiles": "CCOC(=O)c1cc(C#N)c(=S)[nH]c1C", "inhibition": "inconclusive: 61.6%"},
      {"smiles": "C=CCNC(=O)NC(=O)COC(=O)/C(C#N)=C/c1cc(C)n(CCC(C)C)c1C", "inhibition": "inactive: 20.8%"},
      {"smiles": "COc1ccc(-c2c(-c3ccc(S(C)(=O)=O)cc3)sc3ccc(OC)cc23)cc1", "inhibition": "inconclusive: 77.1%"},
      {"smiles": "COc1ccc(Nc2nc3cc(C)ccc3cc2C#N)c(OC)c1", "inhibition": "inconclusive: 53.6%"},
      {"smiles": "Cc1cc2ccccc2nc1SCC(=O)NC1CCCCC1", "inhibition": "inconclusive: 69.7%"},
      {"smiles": "CC(C(=O)NC1CCCC1)N1CCN(Cc2ccccc2)CC1", "note": "(stereo not given)", "inhibition": "inactive: 4%"},
      {"smiles": "Cc1cc2oc3cc(NCCC4CCCN4C)ccc3c(=O)c2cc1C", "note": "(stereo not given)", "inhibition": "active: 61.2%"},
      {"smiles": "O=C(CN1C(=O)c2ccccc2C1=O)NCCc1c[nH]c2ccc(Cl)cc12", "inhibition": "inactive: 3.2%"},
      {"smiles": "O=C(CC1C(=O)NCCN1Cc1c(F)cccc1Cl)NCCC1=CCCCC1", "note": "(stereo not given)", "inhibition": "inconclusive: 75.9%"},
      {"smiles": "CCOc1ccc(N2C(=O)CC(Sc3n[nH]c(-c4ccccc4)n3)C2=O)cc1", "note": "(stereo not given)", "inhibition": "inconclusive: 84.9%"},
      {"smiles": "CC(=O)c1ccc(NC(=O)c2sc3nc(N4CCOCC4)c4c(c3c2N)CCCC4)cc1", "inhibition": "inconclusive: 83.4%"},
      {"smiles": "Cc1nc(-c2ccccc2)sc1-c1nc(-c2ccccc2)ncc1S(=O)(=O)c1ccccc1", "inhibition": "inconclusive: 75.6%"},
      {"smiles": "N#CC(c1ccccn1)c1ncc(C(F)(F)F)cc1Cl", "note": "(stereo not given)", "inhibition": "inactive: -1%"},
      {"smiles": "O=C(O)c1cc(-c2ccc3ccccc3c2)nc2ccc(F)cc12", "inhibition": "inactive: 7.9%"},
      {"smiles": "CCCN(CCC)S(=O)(=O)c1ccc(C(=O)N2CC3CCC(CC3)C2)cc1", "inhibition": "inconclusive: 86.1%"},
      {"smiles": "COc1ccc([C@H]2CC(=O)C=C(c3ccc4c5c(cccc35)CC4)C2)cc1", "inhibition": "inconclusive: 63.4%"},
      {"smiles": "CCC(Cc1ccccc1)NC(=O)Cn1cccc1C(=O)c1ccccc1", "note": "(stereo not given)", "inhibition": "inactive: 7.5%"},
      {"smiles": "CCc1ccccc1NC(=O)CCNS(=O)(=O)c1cc(Br)cnc1N", "inhibition": "inactive: 11.4%"},
      {"smiles": "COc1ccc(OC)c(NC(=O)Nc2ccc3[nH]ccc3c2)c1", "inhibition": "inconclusive: 71.6%"},
      {"smiles": "Cc1cc(C)n(-c2nc3ccccc3nc2N2CCN(S(=O)(=O)c3ccc4ccccc4c3)CC2)n1", "inhibition": "inconclusive: 48.2%"},
      {"smiles": "COC(=O)Cn1c(=NC(=O)c2ccc(S(=O)(=O)N3CCc4ccccc4C3)cc2)sc2cc(OC)ccc21", "inhibition": "inconclusive: 75.8%"},
      {"smiles": "Cc1cccc(NC(=O)c2cc3c([nH]c4ccccc43)c(C)n2)c1C", "inhibition": "inconclusive: 65%"},
      {"smiles": "O=C1OCCN1C(=O)[C@H]1[C@H](c2ccc(F)cc2)C(c2ccc(F)cc2)=NN1c1ccc(Br)cc1", "inhibition": "inconclusive: 55.1%"},
      {"smiles": "O=C(Nc1ccc(N2CCCC2=O)cc1)c1cccc(F)c1", "inhibition": "inactive: -2.2%"},
      {"smiles": "O=C(OCC(=O)N1CCN(C(=O)c2ccco2)CC1)c1cc(F)c(F)cc1Cl", "inhibition": "inactive: -13.8%"},
      {"smiles": "CC(C)c1ccc(N2C(=O)/C(=C/N(C)C)SC2=S)cc1", "inhibition": "inconclusive: 86.1%"},
      {"smiles": "Oc1c(C(c2cccs2)N2CCN(c3cccc(Cl)c3)CC2)sc2ncnn12", "note": "(stereo not given)", "inhibition": "active: 52.7%"},
      {"smiles": "CS(=O)(=O)c1cccc(NC(=O)c2ccc(Cl)c(Cl)c2)c1", "inhibition": "inconclusive: 77%"},
      {"smiles": "NC(=S)N=Nc1c(O)n(C2OC(=O)c3ccccc32)c2ccccc12", "note": "(stereo not given)", "inhibition": "active: 88.5%"},
      {"smiles": "CN1CCN(CC/C=C2/c3ccccc3Sc3ccc(S(=O)(=O)N(C)C)cc32)CC1", "inhibition": "active: 55%"},
      {"smiles": "Brc1ccc2ncnc(NCc3cccnc3)c2c1", "inhibition": "inconclusive: 67.6%"},
      {"smiles": "COc1ccc(NC(=O)CN2CCN(c3ccccn3)CC2)cc1Cl", "inhibition": "inactive: 2.1%"},
      {"smiles": "CC(=O)N1c2ccc(S(=O)(=O)N3CCCC3C(=O)Nc3cccc(F)c3)cc2CC1C", "note": "(stereo not given)", "inhibition": "inactive: 0.9%"},
      {"smiles": "CCN(C(=O)Cn1c(=O)oc2ccccc21)C1CCS(=O)(=O)C1", "note": "(stereo not given)", "inhibition": "inconclusive: 81.2%"}
    ]}
  ]
}
